In paper PMC6292214 (2018):

B1: hCENP-N[…] (untagged) […] (protein)
chain: not shown
modifications: CENP-A in nucleosome with H4, H2A, H2B and DNA
B2: MBP-tagged hCENP-N[…] […] (protein)
chain: not shown
modifications: His8-MBP tag on CENP-N; CENP-A in nucleosome with H4, H2A, H2B and DNA

Biological target: CENP-A nucleosome (Homo sapiens, UniProt P49450)

Binder	Kd
B1	46 nM
B2	42 nM
